The IC50 comes from the fitted curve, where viability falls to half of the control; where the fit passes the top or lowest dose, that dose stands as a limit. AUC is the area under the same curve over the 256-fold range up to the top dose, as a fraction; values near 1 show little effect. For part of these data: Any top dose called inferred was derived from the fitted curves, not read from the paper.
What was measured:
Assay in all cases: Viability of human cancer cell lines after 72 h of drug (GDSC screen)
[1] = compound: CN(Cc1cnc2nc(N)nc(N)c2n1)c1ccc(C(=O)N[C@@H](CCC(=O)O)C(=O)O)cc1 [Methotrexate]; settings: top dose 0.2 µM
Description: (§1)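 Human cancer cell lines in 384-well plates, medium with 10% serum, drug for 72 h over a 256-fold dose range (nine 2-fold or five 4-fold steps up to the top dose). Adherent lines were fixed and stained with the nucleic acid dye Syto60, suspension lines read with resazurin; signal relative to control wells, capped at 0 and 100%. One two-parameter sigmoid per drug and line, fitted in a mixed model over all curves with the slope shared within a line.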

[2] = compound: CC(C)(C)c1nc(-c2cccc(NS(=O)(=O)c3c(F)cccc3F)c2F)c(-c2ccnc(N)n2)s1 [Dabrafenib]; settings: top dose 10 µM
Description: as §1

[3] = compound: CNC(=O)c1ccccc1Sc1ccc2c(/C=C/c3ccccn3)n[nH]c2c1 [Axitinib]; settings: top dose 2 µM
Description: as §1

[4] = compound: CCc1c2c(nc3ccc(O)cc13)-c1cc3c(c(=O)n1C2)COC(=O)[C@]3(O)CC [SN-38]; settings: top dose 0.05 µM; top dose inferred
Description: as §1

Cell Line | AUC [1] | IC50 [1] [nM] | AUC [2] | IC50 [2] [nM] | AUC [3] | IC50 [3] [nM] | AUC [4] | IC50 [4] [nM]
HGC-27 (stomach, adherent) | 0.971 | > 200 | 0.967 | > 10000 | 0.901 | 1900 | 0.479 | 2.77
TE-1 (oesophagus, adherent) | 0.878 | > 200 | 0.899 | > 10000 | 0.941 | > 2000 | 0.702 | 13.6
DG-75 (Burkitt lymphoma, suspension) | 0.497 | 12.3 | 0.905 | > 10000 | 0.934 | > 2000 | 0.895 | > 50
EJM (lymphoid neoplasm, semi-adherent) | 0.989 | > 200 | 0.991 | > 10000 | 0.992 | > 2000 | 0.838 | 26.4
KASUMI-1 (acute myeloid leukaemia, suspension) | 0.826 | 121 | 0.681 | 2010 | 0.225 | 19.7 | 0.785 | 21.5
A101D (melanoma, adherent) | 0.938 | > 200 | 0.197 | 61.3 | 0.91 | > 2000 | 0.718 | 15.2
NB5 (neuroblastoma, adherent) | 0.982 | > 200 | 0.953 | > 10000 | 0.91 | > 2000 | 0.424 | 1.93
NCI-H1993 (lung adenocarcinoma, adherent) | 0.982 | > 200 | 0.849 | > 10000 | 0.976 | > 2000 | 0.88 | > 50
SKN (uterus, adherent) | 0.981 | > 200 | 0.939 | > 10000 | 0.738 | 701 | 0.697 | 12.6
H9 (lymphoid neoplasm, suspension) | 0.419 | 7.85 | 0.951 | > 10000 | 0.977 | > 2000 | 0.443 | 2.24
CFPAC-1 (pancreas, adherent) | 0.896 | > 200 | 0.845 | 8830 | 0.958 | > 2000 | 0.52 | 3.56
JIMT-1 (breast, adherent) | 0.984 | > 200 | 0.847 | 8220 | 0.901 | > 2000 | 0.876 | > 50
NCI-H2081 (small cell lung carcinoma, suspension) | 0.893 | > 200 | 0.988 | > 10000 | 0.912 | > 2000 | 0.917 | > 50
Calu-6 (lung adenocarcinoma, adherent) | 0.909 | > 200 | 0.682 | 2190 | 0.984 | > 2000 | 0.709 | 13.3
NB-4 (acute myeloid leukaemia, suspension) | 0.484 | 11.4 | 0.826 | 4640 | 0.914 | > 2000 | 0.376 | 1.52
ME-1 (acute myeloid leukaemia, suspension) | 0.982 | > 200 | 0.947 | > 10000 | 0.98 | > 2000 | 0.969 | > 50
KOPN-8 (B-cell leukaemia, suspension) | 0.568 | 18.7 | 0.985 | > 10000 | 0.933 | > 2000 | 0.434 | 2.12
NCI-H716 (large intestine, suspension) | 0.964 | > 200 | 0.946 | > 10000 | 0.488 | 115 | 0.957 | > 50
SW1990 (pancreas, adherent) | 0.985 | > 200 | 0.979 | > 10000 | 0.965 | > 2000 | 0.65 | 8.82
RC-K8 (B-cell lymphoma, suspension) | 0.918 | > 200 | 0.978 | > 10000 | 0.993 | > 2000 | 0.975 | > 50
PWR-1E (prostate, adherent) | 0.983 | > 200 | 0.984 | > 10000 | 0.838 | 1340 | 0.499 | 3.11
23132-87 (stomach, adherent) | 0.879 | > 200 | 0.982 | > 10000 | 0.982 | > 2000 | 0.61 | 6.35
BC-1 (B-cell lymphoma, suspension) | 0.848 | 117 | 0.764 | 3120 | 0.987 | > 2000 | 0.571 | 4.72
KMH-2 (thyroid, adherent) | 0.885 | 177 | 0.73 | 2590 | 0.932 | > 2000 | 0.854 | 32.9
NCI-H69 (small cell lung carcinoma, suspension) | 0.876 | > 200 | 0.975 | > 10000 | 0.931 | > 2000 | 0.883 | > 50
OS-RC-2 (kidney, adherent) | 0.922 | > 200 | 0.959 | > 10000 | 0.923 | > 2000 | 0.74 | 21.1
PANC-02-03 (pancreas, adherent) | 0.964 | > 200 | 0.853 | > 10000 | 0.978 | > 2000 | 0.754 | 19.9
DoTc2-4510 (cervix, adherent) | 0.985 | > 200 | 0.978 | > 10000 | 0.97 | > 2000 | 0.667 | 8.89
OPM-2 (myeloma, suspension) | 0.983 | > 200 | 0.993 | > 10000 | 0.993 | > 2000 | 0.992 | > 50
SNU-449 (liver, adherent) | 0.942 | > 200 | 0.966 | > 10000 | 0.946 | > 2000 | 0.955 | > 50
